# Experimental data: PubChem BioAssay AID686979 (National Center for Advancing Translational Sciences (NCATS), 2013)
# The campaign covered roughly 420,000 compounds. About 50,000 (12%) were called active. Inconclusive means that the source gave no clear call. Such entries were picked first, then a sample of the others. The call rests on the fitted dose curve; in most records, active means well fitted inhibition curve with a large enough effect; inconclusive means small, poorly fitted or top-dose-only effect; inactive means flat fitted curve, though single readings scatter. Potencies of inconclusive entries are left out as doubtful fits.
# Experiment: qHTS for Inhibitors of human tyrosyl-DNA phosphodiesterase 1 (TDP1): qHTS in cells in presence of CPT; further: nearly all actives have a fitted effect of over 55% in size
# Settings: chicken DT40 Tdp1-/-;hTDP1 cells + 20 nM CPT, ATP luminescence, 48 h; activity change, negative = growth inhibition: at 46.2 µM (top of the series) unless noted
# Method in brief: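 Chicken DT40 Tdp1-/- cells stably complemented with human TDP1 were seeded at 400 cells/well in medium containing 20 nM camptothecin, exposed to pin-transferred compounds, and grown at 37 °C for at least 48 hr. Viability was read as ATP luminescence.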
# On the % scale 0 is the no-effect control and ±100 the full control effect; potency means the concentration at half of the fitted maximal effect; tags describe the fitted curve by direction and shape.
Structure (SMILES),Potency,"activity change, negative = growth inhibition"
COc1nc(N/N=C/c2ccc(C)cc2)nc(N2CCCCC2)n1,inactive,–
COc1ccc(CN2CCCC(n3cc(C(=O)NC4CCCC4)nn3)C2)c(O)c1 (centres undefined),"inconclusive [inhibitor, single point]",–
COc1ccc(NC(=O)CSC2=Nc3ccccc3C3=NC(CCC(=O)NC4CCCCC4)C(=O)N23)cc1 (centres undefined),"inconclusive [inhibitor, partial curve]",–
COc1ccc(-c2cc(C(=O)Nc3cc(OC)c(OC)c(OC)c3)no2)cc1,"inconclusive [inhibitor, single point]",–
Cc1ccccc1OCCOC(=O)c1cc(S(=O)(=O)N2CCOCC2)ccc1C,"inconclusive [inhibitor, partial curve]",–
CCOC(=O)C1=CC[C@@H](c2ccccc2)N(S(=O)(=O)c2ccc(C)cc2)[C@@H]1C#N,"inconclusive [inhibitor, single point]",–
Oc1ccc(N2CCN(C(c3cccnc3)c3nnnn3Cc3ccccc3)CC2)cc1 (centres undefined),"inconclusive [inhibitor, single point]",–
CCOC(=O)C1(CCOc2ccccc2)CCN(Cc2cc(OC)c(O)c(OC)c2)CC1,active: 29.1 µM,–
CSc1nc(-c2ccco2)nn1C(=O)c1cccs1,"inconclusive [inhibitor, single point]",–
CCOC(=O)c1cccc(NC(=O)CCn2c(-c3ccc(F)cc3)cc(C(=O)OCC)c2C)c1,active: 20.6 µM,–
O/N=C(\CN1CCCCC1)c1ccccc1,inactive,–
CCc1ccc2nc(SCC(=O)Nc3nnc(C)s3)c(C)cc2c1,active: 9.2 µM,–
CC(=O)c1ccc(NC(=O)COC(=O)/C=C/c2cccs2)cc1,"inconclusive [inhibitor, single point]",–
CCOC(=O)C1(CCOc2ccccc2)CCN(C(=O)c2ccc(-n3cccn3)cc2)CC1,"inconclusive [inhibitor, single point]",–
O=C1OC(NC(=O)c2ccccc2)C(n2cc(CO)nn2)=C1Cl (centres undefined),"inconclusive [inhibitor, single point]",–
CCOC(=O)c1ccc(NC(=O)CCc2c(C)nc3ncnn3c2C)cc1,inactive,–
COc1ccc2c(C(=O)NCc3ccc4c(c3)OCO4)c(-c3ccc(S(C)(=O)=O)cc3)sc2c1,active: 23.1 µM,–
O=C(/C=C/c1ccccc1)NCCc1ccccc1,active: 9.2 µM,–
CCOc1cc(NS(=O)(=O)c2ccc(OC)cc2)c(OCC)cc1NC(=O)c1ccco1,active: 20.6 µM,–
COc1ccc(-c2oc3c(c2C(=O)OCCO)C(OCCCO)CCC3)cc1 (centres undefined),"inconclusive [inhibitor, single point]",–
COc1cc2c(cc1NC(=O)CSc1nc3ccccc3[nH]1)oc1ccccc12,"inconclusive [inhibitor, single point]",–
Cc1ccc2cc(C=O)c(N3CCOCC3)nc2c1C,"inconclusive [inhibitor, single point]",–
C/C(=C1/SC(N2CC(C)OC(C)C2)=NC1=O)c1ccccc1 (centres undefined),"inconclusive [inhibitor, partial curve]",–

Structure (SMILES),Potency,"activity change, negative = growth inhibition"
O=C(CSCc1ccccc1Cl)N1CCN(c2ccc(Cl)cc2)CC1,"inconclusive [inhibitor, single point]",–
Cc1cccc(C(=O)Nc2cccc(-c3ccc4nncn4n3)c2)c1,"inconclusive [inhibitor, single point]",–
CCCCNC(=O)C(CC)n1c(SCc2cccc(F)c2)nc2ccncc21 (centres undefined),active: 10 µM,–
CC(=O)NCCCNC(=S)NCCCN(Cc1ccc(Cl)cc1)c1ccc(Br)cn1,"inconclusive [inhibitor, single point]",–
Cc1cccc(C(=O)NCCc2ccccc2)c1,inactive,–
CCN1C(=O)N[C@@H](CCc2ccccc2)C(C(=O)OC)=C1C,"inconclusive [inhibitor, single point]",–
CCOC(=O)C1CCN(C(=O)c2ccc(-n3ccc4ccccc43)s2)CC1,"inconclusive [inhibitor, single point]",–
CCOc1cc([N+](=O)[O-])cc2c1C(=O)Nc1ccccc1O2,"inconclusive [inhibitor, single point]",–
Cc1csc(N2CCN(c3cc4nc(-c5ccncc5)[nH]c4cc3Cl)CC2)n1,"inconclusive [inhibitor, single point]",–
COc1cc2ccccc2cc1C(=O)Nc1ccc(Cc2ccncc2)cc1,active: 18.4 µM,–
NC(=O)c1cc2cc(Cc3ccccc3Cl)ccc2oc1=O,"inconclusive [inhibitor, full curve, poor fit]",–
O=[N+]([O-])c1cc(S(=O)(=O)N2CCCCCC2)ccc1Cl,"inconclusive [inhibitor, single point]",–
CCOC(=O)c1cc2c(=O)n3ccccc3nc2n(Cc2ccco2)c1=NC(=O)c1cccc(OC)c1,"inconclusive [inhibitor, single point]",–
O=C(CSc1ccc(-c2ccccn2)nn1)N1CCCC1,"inconclusive [inhibitor, single point]",–
N#Cc1ccccc1S(=O)(=O)N1CCNS(=O)(=O)c2ccccc21,inactive,–
Cc1cccc(NC(=O)N2CC(=O)Nc3sc4c(c3C2c2ccccc2)CCCC4)c1C (centres undefined),"inconclusive [inhibitor, single point]",–
Cc1ccc(C(=O)c2cn(CC(=O)Nc3ccc(C)cc3Cl)c3nc(C)ccc3c2=O)cc1,active: 10.3 µM,–
CS(=O)(=O)c1ccc2nc(NC(=O)c3ccc(Cl)nc3)sc2c1,–,inconclusive: -31.2% [inhibitor]
Cc1ccccc1Cn1nc(C)c(NC(=O)/C=C/c2cnn(C)c2)c1C,inactive,–
Cc1cc(C)cc(NC(=O)Cn2nnc(C(=O)NCc3ccc(F)cc3)c2N)c1,active: 20.6 µM,–
CC(C)OCCCNC1=C(Cl)C(=O)c2ccccc2C1=O,"inconclusive [inhibitor, single point]",–
CC(=O)C1=C(c2ccccc2)NC(=O)NC1c1cccs1 (centres undefined),inactive,–
COc1ccc(NC(=O)C2(C)CCN2Cc2cccc(OC)c2OC)cc1OC (centres undefined),"inconclusive [inhibitor, single point]",–

Structure (SMILES),Potency,"activity change, negative = growth inhibition"
CCN(CC)C(=O)CNC(=O)c1nn(-c2ccc(OC)c(Cl)c2)c(=O)c2ccccc12,inactive,–
Cc1ccc(S(=O)(=O)N2C[C@@H]3[C@H]4CC[C@H](C4)[C@@H]3[C@@H](C)[C@@H]2C2CCCCC2=O)cc1 (some centres undefined),"inconclusive [inhibitor, single point]",–
Cc1ccc2oc(-c3ccc(NC(=O)COc4ccccc4)cc3O)nc2c1,"inconclusive [inhibitor, partial curve]",–
Cc1ccc(Cl)cc1N1CCN(C(=O)c2ccc3c(c2)N(Cc2ccc(F)cc2)CCS3)CC1,"inconclusive [inhibitor, single point]",–
CC(C)(C)Cc1c(C2CCCCC2)nc2ccc(Br)cn12,"inconclusive [inhibitor, single point]",–
Cc1c(Br)ccc(NC(=O)COc2ccccc2C(N)=O)c1C,inactive,–
O=C(COc1cccc(Br)c1)N/N=C1\CCSC1,"inconclusive [inhibitor, single point]",–
COc1ccc(CCn2c(NN=C(C)C)nc3c2c(=O)[nH]c(=O)n3C)cc1,"inconclusive [inhibitor, single point]",–
Cc1cn2c(=O)cc(COC(=O)c3ccc(NC(=O)COc4ccccc4F)cc3)nc2s1,"inconclusive [inhibitor, single point]",–
CCOc1ccc(S(=O)(=O)Nc2ccc(C(=O)N(C)CC(=O)Nc3ccc(OC)cc3)cc2)cc1,–,inconclusive: -31% [inhibitor]
CCOc1ccccc1OCCCn1c(-c2ccc(Cl)cc2)nc2ccccc2c1=O,inactive,–
COc1ccc(Br)cc1CN1CCC(N2CCCC2)CC1,"inconclusive [inhibitor, single point]",–
COCCCNC(=S)N/N=C/c1ccc(OC)c(Br)c1,"inconclusive [inhibitor, single point]",–
CCOc1cc(CN2CCc3c([nH]c4ccccc34)C2)ccc1OC,"inconclusive [inhibitor, single point]",–
COc1ccc(C2SCC(=O)N2c2c(C)n(C)n(-c3ccccc3)c2=O)cc1OC (centres undefined),inactive,–
COc1ccc(CN(C(=O)CSc2nnc(-c3ccc(OC)c(OC)c3)o2)c2ccc(F)cc2)cc1,"inconclusive [inhibitor, partial curve]",–
COc1ccc(NC(=O)CNc2cccc(S(=O)(=O)N3CCCCCC3)c2)c([N+](=O)[O-])c1,"inconclusive [inhibitor, single point]",–
CCOC(=O)N1CCN(C(=O)CN2C(=O)c3ccccc3S2(=O)=O)CC1,inactive,–
CCCCCC(=O)NC(Nc1ccc(S(N)(=O)=O)cc1)C(Cl)(Cl)Cl (centres undefined),active: 16.4 µM,–
COc1ccc(-c2c3c(=O)n(C)c(=O)n(C)c3c3n2-c2ccccc2NC3c2ccco2)cc1 (centres undefined),active: 14.6 µM,–
C=CCn1c(CNC(=O)c2cccs2)nnc1SCc1ccc(Cl)cc1Cl,"inconclusive [inhibitor, single point]",–
COC(=O)c1ccc2nc(-c3ccco3)c(Cc3cccc(Cl)c3)n2c1,"inconclusive [inhibitor, single point]",–
CCOc1ccc(CCNC(=O)Cn2nc(CC)n3c(cc4ccccc43)c2=O)cc1,inactive,–
